Results reported in PubChem BioAssay AID488969 (Vanderbilt High Throughput Screening Facility, 2010).
Whole data set: some 110,000 compounds, median “z-score” near -0.1, cut for the highest 2% near 2. This is one part of the list.

What follows are compounds tested against Metabotropic glutamate receptor 8 (Rattus norvegicus) (UniProt P70579) (assay: rat mGluR8 modulators via GIRK flux, primary screen, cell-based, thallium flux, HTS (AID 488969)). Conditions: HEK293 rat mGluR8, GIRK (G protein-gated inwardly rectifying potassium channel) thallium flux, FluoZin2; at 10 µM; stronger effect = higher value; submaximal glutamate (EC20) added with thallium.
UniProt P70579, sequence (P70579 whole entry, looked up): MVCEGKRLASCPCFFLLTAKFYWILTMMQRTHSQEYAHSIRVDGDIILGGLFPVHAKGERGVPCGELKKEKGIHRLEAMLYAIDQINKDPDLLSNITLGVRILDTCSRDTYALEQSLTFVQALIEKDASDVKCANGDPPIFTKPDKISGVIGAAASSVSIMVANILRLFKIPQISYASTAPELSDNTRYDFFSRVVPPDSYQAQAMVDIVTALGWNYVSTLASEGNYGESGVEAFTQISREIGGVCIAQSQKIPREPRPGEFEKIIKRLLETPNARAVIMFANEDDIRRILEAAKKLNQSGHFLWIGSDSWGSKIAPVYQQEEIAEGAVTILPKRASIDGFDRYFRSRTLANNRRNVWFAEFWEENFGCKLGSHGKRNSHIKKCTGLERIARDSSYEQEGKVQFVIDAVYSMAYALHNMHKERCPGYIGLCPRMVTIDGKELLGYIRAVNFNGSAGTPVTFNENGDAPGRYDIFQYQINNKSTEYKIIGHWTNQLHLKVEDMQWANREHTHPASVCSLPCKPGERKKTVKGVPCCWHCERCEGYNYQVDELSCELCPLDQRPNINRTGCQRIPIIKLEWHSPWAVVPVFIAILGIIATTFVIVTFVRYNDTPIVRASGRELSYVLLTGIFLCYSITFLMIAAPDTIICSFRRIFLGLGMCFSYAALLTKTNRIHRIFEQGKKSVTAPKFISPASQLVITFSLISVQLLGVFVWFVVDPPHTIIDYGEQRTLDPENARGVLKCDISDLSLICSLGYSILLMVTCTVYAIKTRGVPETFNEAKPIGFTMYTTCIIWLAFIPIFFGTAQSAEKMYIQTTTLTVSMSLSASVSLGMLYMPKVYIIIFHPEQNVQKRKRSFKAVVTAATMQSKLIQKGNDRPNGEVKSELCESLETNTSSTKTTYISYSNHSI

Structure (SMILES)	z-score
Cn1nc(C(=O)Nc2ccc(S(=O)(=O)N3CCCCC3)cc2)ccc1=O	0.0197
Cc1cccc(C2CC(c3ccccc3)Nc3ncnn32)c1 (centres undefined)	-0.681
CCOC(=O)c1nc(N)sc1C(=O)OCC	0.00494
COc1ccccc1NC(=O)CN1CCN(c2ccccn2)CC1	0.103
CC(=O)Nc1ccc(S(=O)(=O)NC2=C(N3CCN(c4ccc(F)cc4)CC3)C(=O)c3ccccc3C2=O)cc1	-0.134
Nc1ccc2oc(-c3ccccc3Cl)nc2c1	-0.165
CCOP(=O)(c1ccc(N(C)C)cc1)C(O)c1cc(OC)c(OC)c(OC)c1 (centres undefined)	0.0659
CC1CN(C(=O)Cn2cnc3c2c(=O)n(C)c(=O)n3C)CC(C)O1 (centres undefined)	-0.083
Cc1ccc(NC(=O)C2=C(O)c3sccc3N(C)S2(=O)=O)cc1	-0.146
COc1ccc(/C=N/NC(=O)c2cccc(OC(F)(F)C(F)F)c2)c(OC)c1OC	-0.825
COc1ccc(S(=O)(=O)N2CCCCCC2)cc1N(C)S(=O)(=O)c1ccc(Cl)cc1	-0.418
CCOC(=O)C1=C(C)NC(C)=C(C(=O)OCC)C1	-0.207
CCOc1ccc(Br)cc1S(=O)(=O)Nc1ccc(C(=O)OC(C)C(=O)N(C)c2ccccc2)cc1 (centres undefined)	0.235
CCOC(=O)/C(C#N)=C1/C=Nc2ccccc2N1	-0.373
CC(=O)Oc1ccc2c(=O)c(N3C(=O)c4ccccc4C3=O)c(C)oc2c1	0.0564
O=C(Cn1ncc(Cl)c(Cl)c1=O)c1ccc(Cl)cc1	-0.917
Cc1ccc(S(=O)(=O)N(C)c2ccc(OCC(=O)Nc3nc4ccccc4s3)cc2)cc1	0.0641
COc1ccc(-c2c3c(=O)n(C)c(=O)n(C)c3cn2N2CCOCC2)cc1	-0.115
O=c1cc(CSc2nnnn2-c2ccccc2)nc2scc(-c3ccccc3)n12	-0.201
COC(C(=O)Nc1ccc(C(C)=O)cc1)c1ccccc1 (centres undefined)	0.0497
Cc1ccc(C)n1NC(=O)c1ccco1	0.486
Cn1c(SCC(=O)Nc2ccc(N3CCOCC3)c(Cl)c2)nnc1C(O)c1ccccc1 (centres undefined)	-0.431

Structure (SMILES)	z-score
O=C(Nc1cc(C(F)(F)F)ccc1Cl)C(=O)N1CCCCC1	-0.202
O=C(COC(=O)Cn1cnc2ccccc2c1=O)Nc1cc(Cl)ccc1[N+](=O)[O-]	-0.239
COC(=O)c1cccc(Nc2ncnc3ccc(C)cc23)c1	0.325
O=S(=O)(Nc1nc2ccccc2nc1N1CCc2ccccc2C1)c1ccc(Br)cc1	1.69
CCOC(=O)c1[nH]c2ccc(F)cc2c1NC(=O)C(C)N1CCc2cc(OC)c(OC)cc2C1 (centres undefined)	-0.63
O=C(/C=C/NNC(=O)c1ccccc1)c1ccccc1	-0.131
O=C(Cc1ccc(Cl)cc1)Nc1cccc(S(=O)(=O)Nc2ccccc2F)c1	0.371
Oc1ccc(/C=C/c2nc(-c3ccccc3O)n(-c3ccccc3)n2)cc1	-0.372
Cc1nnc(SCC(=O)NCc2cccs2)n1-c1ccccc1	-0.0136
COc1cccc(C(=O)NCCCN2CCN(CCCNC(=O)c3cccc(OC)c3)CC2)c1	-0.114
O=C(CSc1nnc(-c2c[nH]c3ccccc23)o1)c1ccc(-c2ccccc2)cc1	-0.253
Cc1cc(=O)[nH]c(/N=C(/NC(=O)c2ccccc2)Nc2ccc3c(c2)OCCO3)n1	0.312
COc1ccccc1N1CCN(C(=O)c2cc3sccc3n2C)CC1	-0.963
CCOCCCN1CC(C(=O)NCCc2ccc(C)cc2)CC1=O (centres undefined)	-0.0509
COc1ccc2nc(NC(=O)CSc3nnc4n3C(C)(C)Cc3ccccc3-4)sc2c1	-0.0177
Brc1ccccc1OCCCN1CCOCC1	-0.502
CC1=NN(C(=O)c2ccc(Cn3nc(C)c([N+](=O)[O-])c3C)cc2)C(O)(C(F)(F)F)C1 (centres undefined)	-0.0799
Cc1nc2ccccc2nc1SCC(=O)c1ccccc1	-0.178
CSc1ncccc1C(=O)Nc1nc2c(C)cccc2s1	0.518
O=S(=O)(NCc1ccco1)c1ccc2c(c1)Cc1ccccc1-2	1.46
CCCCOc1ccc(-c2nc(=S)[nH][nH]2)cc1	0.294
COc1cc(-c2[nH]nc3c2C(c2ccoc2)C(C#N)=C(N)O3)cc(OC)c1OC (centres undefined)	-0.355

Structure (SMILES)	z-score
CCN1CCN(CCCCOc2ccccc2F)CC1	0.0641
CCCN(CCC)CCNC(=O)C1CC(=O)N(c2ccc(OC)cc2)C1c1ccc(OC)cc1 (centres undefined)	-0.547
Cc1cc(-c2ccccc2)[nH]c(=O)c1S(=O)(=O)c1ccccc1	-0.0134
CCCC(=O)N1CCN(c2ccc(NC(=O)c3sc4ccccc4c3Cl)cc2)CC1	-0.318
COc1ccc(C(c2nnnn2CC2CCCO2)N2CCC(C(N)=O)CC2)cc1 (centres undefined)	0.0457
Cc1c(Br)c([N+](=O)[O-])nn1CC(=O)N1CCc2ccccc2C1	0.185
CCc1nc(SCc2nc3ccccc3[nH]2)c2oc3ccccc3c2n1	-0.749
CC(c1nnc(Sc2nnnn2-c2ccccc2)n1-c1ccc(F)cc1)N(C)C (centres undefined)	-0.321
O=C(CCc1ccccc1)N1CCN(c2ccc(Cl)cc2)CC1	0.502
O=C(Cn1c(C(F)(F)F)nc2ccccc21)c1ccc(F)cc1	-0.0983
CN1CCN(CCC(=O)Nc2ccccc2Cl)CC1	-0.25
O=C(Nc1ccc2ccccc2c1)c1cn(-c2ccccc2)nc1-c1cccs1	-0.0665
Cn1cccc1CC(=O)NNC(=O)Nc1cccc(Cl)c1	0.0701
O=C(Nc1nccs1)c1cc(Cl)ccc1[N+](=O)[O-]	-0.122
O=C(Cn1nnc2ccccc2c1=O)Nc1cc(C(F)(F)F)ccc1N1CCOCC1	0.203
O=C(N/N=C/C(Br)=C\c1ccccc1)c1n[nH]c2c1CCC2	0.919
Cc1ccccc1-n1c(C)cc(/C=N/NC(=O)c2ccncc2)c1C	-0.537
O=C1c2ccccc2C(=O)N1CCCCN(C(=O)c1ccco1)c1ccc(Cl)cc1	0.221
CCCCCOc1ccc(C2C(C(C)=O)=C(C)Nc3ncnn32)cc1OC (centres undefined)	0.462
O=C(CCSCc1cccc(Cl)c1)NCCc1ccccc1	0.461
COc1ccc(Cl)cc1NC(=O)COC(=O)CNC(=O)c1ccc([N+](=O)[O-])c(C)c1	-0.184
NC(=O)C1CCN(c2nc(C3CC3)nc3c2nnn3Cc2ccccc2Cl)CC1	0.157

Structure (SMILES)	z-score
Cc1nn(-c2cc(N3CCOCC3)ccc2[N+](=O)[O-])c(=O)c2ccccc12	-0.115
Cc1ccc(N(CC(=O)N/N=C/c2cc(C)n(-c3ccccc3C)c2C)S(C)(=O)=O)cc1	-0.0921
COc1ccc2[nH]c(N=Nc3ccccc3C)c(O)c2c1	0.373
COc1cc([N+](=O)[O-])ccc1-c1ccc(C(=O)Nc2ccc(NC(C)=O)cc2)o1	-0.195
Cc1cc(C)c(S(=O)(=O)N2CCC(C(N)=O)CC2)cc1C	0.82
COc1cc(NC(=S)N2CCN(Cc3ccccc3)CC2)cc(OC)c1	-0.424
COc1ccc(-c2csc(Cc3nnc4n3CCCCC4)n2)cc1OC	-0.391
O=C(Nc1ccc2nc3n(c(=O)c2c1)CCCCC3)c1ccccc1Cl	-0.529
O=c1c2cccc3c2c(nn1-c1ccccc1)-c1ccccc1-3	-0.249
CSc1ccccc1NC(=O)CN(C)S(=O)(=O)c1ccc(F)cc1	-0.156
CCC(=S)/C=C1\Sc2ccc3ccccc3c2N1CCCS(=O)(=O)O	-0.78
CCOC(=O)N1CCN(Cc2cc(=O)oc3ccc4ccccc4c23)CC1	-0.627
C=CCN(c1ccccc1)S(=O)(=O)c1cccc(C(=O)O)c1	-0.576
Cc1ccc(NC(=O)c2sc(Cl)nc2-c2ccccc2)cc1C	-0.118
CC(C)(C)C(=O)Nc1ccccc1C(=O)Nc1ccccn1	-0.101
Cc1ccc(-c2cnc(SCC(=O)N3CCCc4ccccc43)n2C)cc1	-0.31
CCn1c(=O)cc(OCC(=O)N(C)c2ccccc2F)c2ccccc21	0.162
O=C(NC(C(=O)NCCN1CCOCC1)C12CC3CC(CC(C3)C1)C2)C1CCCCC1 (centres undefined)	-0.279
CN1CCN(C(=S)Nc2ccccc2Cl)CC1	-0.357
Cc1ccc(NC(=O)Cn2cccc2)c(C)c1	-0.101
Cc1ccc(/C=C/C(=O)N2CC(C)CC(C)C2)o1 (centres undefined)	-0.269
COc1ccccc1N1CCN(S(=O)(=O)c2ccc(Br)s2)CC1	-0.245

Structure (SMILES)	z-score
COc1ccc(/C=N/Nc2cc(=O)n(C)c(=O)n2C)cc1OC	-1.56
Cc1[nH]nc(SCC(=O)N2CCCCC2)c1[N+](=O)[O-]	-0.427
CC1C2CC(C(S(=O)(=O)N3CCOCC3)C2=O)C1(C)C (centres undefined)	0.656
Cc1ccc(C(=O)Nc2cccc(C(=O)NCc3ccco3)c2)cc1	-0.23
Cc1nc(NC(=O)c2ccccc2)sc1-c1csc(N)n1	-0.623
COc1ccc(-c2coc3cc(OC)cc(O)c3c2=O)cc1	0.644
COc1ccc(C2/C(=C(/O)c3ccccc3)C(=O)C(=O)N2CO)cc1 (centres undefined)	0.305
COc1ccc(NC(=S)NCCSc2ccc(Cl)cc2)c(OC)c1	-0.0802
Cc1ccc(-n2c(=S)[nH]c3c(oc4ccccc43)c2=O)cc1C	1.14
O=C(COC(=O)CNC(=O)c1ccco1)Nc1ccc(Cl)cn1	-0.0507
O=C(Cn1nc([N+](=O)[O-])nc1Br)NC(c1ccccc1)c1ccccc1	-0.103
COc1ccc(CNC(=O)C(c2ccc(C)o2)N(C(=O)c2csnn2)c2ccc(C(C)C)cc2)cc1 (centres undefined)	-0.548
COc1ccc(NC(=O)C2CC(=O)OC23CCCCC3)cc1 (centres undefined)	1.22
Cc1ccccc1Nc1ncccc1C(=O)N1CCOCC1	-0.0556
CCCN1C(=O)c2cc(C(=O)O)ccc2C1O (centres undefined)	0.176
CCOC(=O)c1cc(NC(=O)Nc2nccs2)c(C)nc1C	-0.407
Cc1cc(Cl)c(S(=O)(=O)NC2CCCCC2)cc1OCC(=O)Nc1nncs1	-0.88
CC(=C/c1ccccc1)/C=C1/SC(N2CCOCC2)=NC1=O	-0.529
CCN(CC)CCNC(=O)Cc1nn(CC)c(=O)c2ccccc12	-0.0929
O=C(NC(=S)Nc1ccc(S(=O)(=O)N2CCCC2)cc1)c1cccs1	1.1
CCN(c1ccccc1)S(=O)(=O)c1cc(C(=O)Nc2cccc(Cl)c2)ccc1F	-0.0119
